Where “and” joins values, the source holds several entries; their conditions need not be identical. Equal values may be shown once. Hit rate of the full screen: of about 110,000 compounds, about 230 (0.21%) showed an effect of 50% or more. This is one part of the list.
The molecules below were run against DPAP1 (Plasmodium falciparum, UniProt Q8IIJ9) (assay: primary screen, percent inhibition; read by cleavage of a fluorogenic dipeptide substrate; higher = more effect of the substance).
Set-up: species or system P. falciparum D10 trophozoite lysates; single well
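Note: 30 min substrate incubation versus DMSO and 10 µM JCP410 controls.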

DPAP1, sequence (Q8IIJ9 whole entry, looked up): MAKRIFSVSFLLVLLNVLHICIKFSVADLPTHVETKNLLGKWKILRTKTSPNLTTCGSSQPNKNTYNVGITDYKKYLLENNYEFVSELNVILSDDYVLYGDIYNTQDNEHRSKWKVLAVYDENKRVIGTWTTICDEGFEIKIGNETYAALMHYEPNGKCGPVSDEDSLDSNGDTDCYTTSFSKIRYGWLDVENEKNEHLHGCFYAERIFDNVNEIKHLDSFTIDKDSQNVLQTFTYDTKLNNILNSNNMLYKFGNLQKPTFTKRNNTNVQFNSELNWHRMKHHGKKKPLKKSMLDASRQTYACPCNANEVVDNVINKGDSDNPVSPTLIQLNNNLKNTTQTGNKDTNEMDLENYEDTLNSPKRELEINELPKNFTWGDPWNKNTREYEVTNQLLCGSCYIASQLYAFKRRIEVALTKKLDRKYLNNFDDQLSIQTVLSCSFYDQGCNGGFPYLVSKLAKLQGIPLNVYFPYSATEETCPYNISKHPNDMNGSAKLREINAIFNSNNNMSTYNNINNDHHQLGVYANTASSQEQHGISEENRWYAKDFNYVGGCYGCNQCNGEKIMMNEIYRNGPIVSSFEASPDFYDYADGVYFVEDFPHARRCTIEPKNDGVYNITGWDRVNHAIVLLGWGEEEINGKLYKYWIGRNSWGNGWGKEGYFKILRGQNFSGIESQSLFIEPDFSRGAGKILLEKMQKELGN

Structure (SMILES) | % Inhibition @ 10 uM
CCOc1ccc(C2CC(=O)NC(SCC(=O)NC3CCCCC3)=C2C#N)cc1 (stereo not drawn) | 30.3%
CCOC(=O)CSc1nc2cc(C)ccc2[nH]1 | 0.135%
CCOc1ccc(N2C(=O)C3CCC(C)CC3C2=O)cc1 (stereo not drawn) | -2.8%
Cc1sc(Nc2ccccc2)nc1-c1ccc(Cl)cc1 | 1.64%
COc1ccc(-n2c(Cc3cccn3C)nnc2SCC(N)=O)cc1 | 2.74%
N#Cc1c(N)nc2c(c1-c1ccc(Cl)cc1Cl)CCCCC2 | 4.67%
O=C(NC1CCCC1)N(Cc1ccc2c(c1)OCO2)C1CCN(Cc2ccccc2)CC1 | -1.41%
Cc1nn(-c2ccccc2)c2c1C(c1ccccc1Br)C(C#N)=C(N)O2 (stereo not drawn) | -2.8%
COc1cc2c(cc1OC)C(C(=O)N1CCN(c3ccccn3)CC1)C(c1cccnc1)N(C)C2=O (stereo not drawn) | -1.31%
COc1cc(/C=C2\S/C(=N/c3ccc(C(=O)O)cc3)N(C)C2=O)ccc1O | 6.69%
CC(=O)N1CCC(N2CCN(c3ccc([N+](=O)[O-])cc3)CC2)CC1 | 0.273%
CCCC(=O)n1nc(-c2ccc(OC)cc2)nc1N | -8.71%
CCOc1cc(/C=C2\C(=N)N3C(C)=CSC3=NC2=O)ccc1OCc1ccc2c(c1)OCO2 | 2.25%
Cc1cc(C)nc(NC(=O)C2c3ccccc3Oc3ccccc32)c1 | -1.06%
O=C(Nc1ccc2c(c1)OCO2)C1CC1c1ccccc1 (stereo not drawn) | -7.81%
COc1ccc(OC)c(NC(=O)COc2ccc(Br)cc2)c1 | -3.26%
Cc1cc(-c2ccc(C)c(S(=O)(=O)NCC3CCN(Cc4cccc(F)c4)CC3)c2)on1 | -1.05%
CCc1nnc2sc(-c3ccccc3OC)nn12 | 0.635%
CCOC(=O)C1=C(CC)OC(N)=C(C#N)C1c1cc(Br)cs1 (stereo not drawn) | -1.38%
CCSc1nc2sc3c(c2c2nncn12)CCN(C)C3 | -3.77%
COc1ccccc1/C=C/C(=O)N1CCCC(c2ccccc2)C1 (stereo not drawn) | -0.0829%
Cc1oc(-c2ccccc2Cl)[n+]([O-])c1C | -5.32%
COc1cc(OC)c(OC)cc1CN1CCN(Cc2c[nH]c3ccccc23)CC1 | -2.88% and -6.26%
CCCc1nc2c3ccccc3nc(NCCc3ccc(Cl)cc3)n2n1 | 2.6%
Cc1oc(-c2ccc(Cl)cc2)nc1CSCC(=O)NCCN1CCOCC1 | -1.27%
COc1ccc(OC)c(NC(=O)c2cccc(OC(F)F)c2)c1 | -6.05%

Structure (SMILES) | % Inhibition @ 10 uM
CC[C@H](NC(=O)[C@@H](O)CS(=O)(=O)Cc1ccccc1OC(F)F)C(=O)c1nc2ccccc2s1 | -5.21%
O=S(=O)(c1ccc(-c2ccccc2)cc1)N1CCSC1c1ccccc1 (stereo not drawn) | 24.4%
COc1cc(NC(=O)c2ccc(Br)cc2)c(OC)cc1Cl | -2.63%
CCN(CC)CCN(CC)Cc1cccc(C)c1 | -2.34%
C/C(=C\c1ccccc1)CN1CCN(c2ccccc2)CC1 | 4.28%
CC(=O)N1c2ccccc2CCc2ccc(NC(=O)c3ccccc3)cc21 | -3.79%
OC1CCCN(Cc2ccc(Cl)c(Cl)c2)C1 (stereo not drawn) | 1.4%
O=C(NCCN1CCOCC1)c1cc2n(n1)C(C(F)(F)F)CC(c1ccc(F)cc1)N2 (stereo not drawn) | -5.98%
CCOc1ccccc1CNCc1c(C(=O)O)n(Cc2ccc(F)cc2)c2cc(OC)ccc12 | 2.06%
Cc1cc(C)cc(Oc2nc3c(C)cccn3c(=O)c2/C=C(\C#N)S(=O)(=O)c2ccccc2)c1 | 5.21%
NS(=O)(=O)c1cc(C(=O)O)ccc1F | -1.99%
Cc1ccc(OCCn2cc(/C=C/C(=O)O)c3ccccc32)cc1 | -3.06%
CN(C)c1ccnc2sc3c(=O)n(-c4ccc(Cl)cc4)cnc3c12 | -0.591%
Cc1ccccc1-c1nc(NC(=O)CSc2nnc3ccccn23)ns1 | 0.628%
CCc1nnc(NC(=O)C2CCC(C/N=c3/c(N4CCC(C)CC4)c(O)c3=O)CC2)s1 (stereo not drawn) | 5.91%
Cc1nn(-c2ccccn2)c2c1C(O)=C(/C=N/c1ccccc1C(=O)O)CC2 | -0.25%
Cc1ccc(C)c(NC(=O)CN(c2cccc3ccccc23)S(C)(=O)=O)c1 | 0.793%
CC1(C)CC(=O)c2c(nc3ccc(Br)cc3c2N)C1 | 1.9%
O=C1c2ccccc2C(=O)N1CC(=O)N1c2ccccc2CCc2ccccc21 | -8.06%
CCOC(=O)C1=C(c2ccc(CC)cc2)C(=O)c2ccccc2C1=O | 3.83%
CC(C)c1ccc(OCCN2CCNCC2)cc1 | 5.3%
CCC/C(CC(C)C)=C(/C#N)C(=O)OCC | -6.99%
O=S(=O)(NCCOc1ccccc1Cl)c1ccc2ccccc2c1 | 2.18%
COc1ccc(N2C(=O)CC(Sc3nc(C)ccc3C#N)C2=O)cc1 (stereo not drawn) | 2.67%
CC[C@@H](C)[C@H](NC(=O)c1ccccc1)C(=O)N[C@@H](CCc1ccccc1)C(=O)COCc1ccccc1 | -2.35%
